Measured values from the supplement of paper PMC3334620.
Over roughly 33,000 sequences, “E-score (-0.5 to 0.5)” has its median near -0.041; the highest 2% begin near 0.37. The list shows a part of the results.

Molecular target: T1, Ecm22 (UniProt Q05958)
T1 sequence: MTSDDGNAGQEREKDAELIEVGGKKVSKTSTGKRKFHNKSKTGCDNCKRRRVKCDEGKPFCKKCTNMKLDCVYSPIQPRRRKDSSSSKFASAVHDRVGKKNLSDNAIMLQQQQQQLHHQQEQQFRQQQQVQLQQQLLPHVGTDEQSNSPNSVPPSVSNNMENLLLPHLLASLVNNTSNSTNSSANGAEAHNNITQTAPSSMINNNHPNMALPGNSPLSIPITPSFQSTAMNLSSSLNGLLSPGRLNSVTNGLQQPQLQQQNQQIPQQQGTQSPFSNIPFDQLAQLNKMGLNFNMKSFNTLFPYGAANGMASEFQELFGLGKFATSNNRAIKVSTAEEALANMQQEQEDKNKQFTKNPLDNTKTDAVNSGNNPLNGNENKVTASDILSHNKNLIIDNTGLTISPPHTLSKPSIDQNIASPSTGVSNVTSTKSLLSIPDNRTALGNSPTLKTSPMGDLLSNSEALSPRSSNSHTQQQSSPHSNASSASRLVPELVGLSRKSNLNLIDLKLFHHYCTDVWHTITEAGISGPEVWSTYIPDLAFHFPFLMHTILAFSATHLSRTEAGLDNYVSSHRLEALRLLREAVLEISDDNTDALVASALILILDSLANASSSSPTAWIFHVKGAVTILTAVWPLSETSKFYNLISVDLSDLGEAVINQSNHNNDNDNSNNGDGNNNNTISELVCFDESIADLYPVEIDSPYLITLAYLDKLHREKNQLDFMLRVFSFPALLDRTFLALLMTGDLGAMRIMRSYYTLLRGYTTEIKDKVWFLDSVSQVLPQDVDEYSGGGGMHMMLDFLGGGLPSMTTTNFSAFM
Assay: PBM E-score (8-mer binding enrichment) (E-score (-0.5 to 0.5)); higher = stronger / more preferred TF binding; most listed sequences are background and not binding sites
Conditions: protein concentration: 200 nM; construct: GST-full length
Protocol: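 Universal 'all 10-mer' protein binding microarrays (Agilent AMADID 015681) probed with GST-tagged S. cerevisiae TFs (full-length or DBD) made by in vitro transcription/translation (PURExpress), about 100-200 nM. Bound TF was detected with fluorescent anti-GST. Each ungapped 8-mer (which stands for itself and its reverse complement) is scored by the PBM enrichment score (E-score), a modified Wilcoxon-Mann-Whitney statistic from -0.5 to +0.5, computed with the Universal PBM Analysis Suite. Scale: above 0.35 generally sequence-specific binding.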

Row | Sequence | PBM E-score
1 | GACACTGC | -0.0959
2 | AGCCAAAT | 0.0246
3 | AAATGTCG | 0.0844
4 | CCGTCTGC | -0.142
5 | TATTACAA | 0.0408
6 | ATGCGGTA | -0.0155
7 | ACAACGAG | 0.288
8 | CTAGGGGA | -0.259
9 | CAGTCACA | -0.117
10 | AATCTCAT | 0.115
11 | CCCAGTCA | -0.273
12 | CCGGATCC | -0.0236
13 | ACCTGAAA | -0.0119
14 | AAGGGAGC | -0.119
15 | ACTTCCGG | -0.171
16 | CAGCGGTC | -0.191
17 | AAGCATGT | 0.0393
18 | GATAAAGC | -0.0561
19 | GTAGTCGA | 0.0287
20 | AGTACATG | -0.0514
21 | GGGTGTAC | 0.103
22 | ACCTGACA | -0.2
23 | ACTATGTG | -0.13
24 | ATTACTGG | -0.321
25 | GCACCTTA | -0.19

Row | Sequence | PBM E-score
26 | CAGGATTC | -0.247
27 | AGCGCAGG | -0.208
28 | ACAGTCTC | -0.0978
29 | CGCGAAGC | 0.176
30 | CGATCACG | 0.121
31 | CGGCCACG | -0.283
32 | CAGCAGGC | -0.0464
33 | CGGACTAC | -0.0358
34 | ACTTAGAG | -0.335
35 | CTCGCAGA | 0.0487
36 | ATCCTACC | -0.186
37 | AGCCGGTG | -0.181
38 | GAGGGTAC | 0.152
39 | AGGTGATC | -0.0593
40 | ACGTCCAT | -0.191
41 | GGAATTGA | -0.0469
42 | ACTAATGA | 0.0403
43 | ATTGAAAC | -0.0355
44 | TCCGCTCA | -0.183
45 | CACTCGTA | 0.458
46 | GGGTTACA | 0.0372
47 | ACGTATTA | 0.235
48 | CGTCGAAC | -0.0061
49 | AGACAAAC | -0.0317
50 | CTAGTGGC | -0.276

Row | Sequence | PBM E-score
51 | AACAGGTA | -0.0274
52 | AATAGGCC | -0.049
53 | CTACCGAG | 0.108
54 | ACATGCAG | -0.0552
55 | CTTTAATA | -0.0217
56 | CCTCGACC | -0.0654
57 | CTCAGCGA | 0.0368
58 | AAGCGTGA | -0.184
59 | CCGGATGA | -0.0739
60 | AGCAAGCC | -0.00874
61 | CAAACGAA | 0.438
62 | AGTGGTCA | 0.0348
63 | ATGAGGTC | -0.171
64 | AACAAACT | 0.0983
65 | CCACCCGG | -0.089
66 | ACTCAAAG | -0.07
67 | AGCTGGTC | -0.0365
68 | AACCTATA | -0.0644
69 | CGTCTAAG | -0.0866
70 | ACTGTCCA | -0.0513
71 | CCAAGACG | -0.191
72 | CTTGTCGA | 0.0352
73 | AGCCTAAG | -0.143
74 | ACCTGGAT | -0.0247
75 | TATCGATA | -0.147

Row | Sequence | PBM E-score
76 | GGAGTAGA | 0.0357
77 | ACGCGTAT | 0.229
78 | ATCGACAG | 0.00794
79 | GTTGTCTA | -0.113
80 | CACACAGA | -0.117
81 | CCCACGTC | -0.124
82 | CTTGCACA | -0.151
83 | AATGAGGG | -0.155
84 | GACAAAGC | -0.0232
85 | CGCGGCAG | -0.104
86 | ACCTATCT | -0.228
87 | AGCCCGAC | -0.161
88 | ACTGTTTC | -0.11
89 | GACCCCTA | -0.246
90 | GATCGAGC | 0.0895
91 | CAGTTCCG | 0.14
92 | ATAAGCGC | 0.0439
93 | ATGAGTCC | -0.0916
94 | AAATTTGG | -0.159
95 | GCCAGTCC | -0.132
96 | AGAGCCAT | -0.0124
97 | AGACCCCG | -0.055
98 | CTGCACTC | -0.104
99 | ATATTGAG | -0.056
100 | AAGCTAAC | 0.0492

Row | Sequence | PBM E-score
101 | CTCCCTGA | -0.307
102 | CACCAAAG | 0.0179
103 | CTACCTGA | -0.18
104 | AGACCCAT | -0.255
105 | ACGGAGAA | 0.164
106 | AATTGCCT | -0.126
107 | CCGTCTTC | -0.175
108 | GGTGCAGA | -0.272
109 | CGGGAGCA | 0.0293
110 | CACTTTGC | -0.0521
111 | ATGAACCC | -0.213
112 | TATGTCCA | -0.051
113 | GCAGCAAC | -0.0105
114 | AGCGCTGG | -0.207
115 | AGGCCGAT | -0.137
116 | AATCCATT | 0.0189
117 | AACTTCCA | -0.117
118 | CAATTTCC | 0.0439
119 | ATACATCC | 0.00188
120 | GATGCAGC | -0.0324
121 | CAACTAGG | -0.174
122 | AACTTGGG | -0.102
123 | GACCGCCA | -0.0369
124 | AAGCTCGC | 0.297
125 | CGTGAGTA | -0.0693

Row | Sequence | PBM E-score
126 | ATGATCTC | 0.0144
127 | CAACCGCA | 0.0228
128 | CACCACCC | -0.195
129 | CGTACTTA | 0.375
130 | CACTCTGG | -0.00447
131 | AGCCAATA | -0.0509
132 | AAATAGTC | -0.0637
133 | GAGAAGGC | -0.131
134 | CGAGGTGA | 0.218
135 | GGAATCTA | -0.286
136 | CACTCCCC | -0.0373
137 | CCATGGGG | -0.158
138 | CCGCGCAA | -0.028
139 | CGATTCGA | 0.165
140 | AATGCCCC | -0.129
141 | ACACTAGT | 0.0337
142 | ATGGCTTG | -0.0444
143 | ATTTACTG | -0.156
144 | TAACGCTA | 0.0626
145 | AATTGGGA | -0.0647
146 | AACCTGTG | -0.124
147 | AACAATGT | -0.12
148 | AGTAAATA | 0.00942
149 | AACGACCG | 0.407
150 | AGATAGCG | -0.0857

Row | Sequence | PBM E-score
151 | ATCTCTGC | -0.069
152 | AGGTTGTC | -0.185
153 | GTTTGCAA | 0.206
154 | CGACGCTC | 0.339
155 | CTGCACAC | -0.334
156 | ACTCAAGA | 0.0179
157 | AAGGCCTC | -0.0464
158 | ACGCTGTC | 0.0124
159 | ATATTTTC | 0.137
160 | CCTAGTCG | -0.108
161 | CTACGAGC | 0.413
162 | CTGGGCCC | -0.253
163 | ATTCCCCC | -0.331
164 | ATCTCGTG | 0.193
165 | TGGTTTAA | -0.178
166 | ATACGCAG | 0.26
167 | CACGCCCC | -0.116
168 | ATCACTCC | -0.0624
169 | GTGCAGTA | -0.0687
170 | GAGCTGGA | 0.0532
171 | GCCAACAC | 0.128
172 | CAATCTTC | 0.0321
